The results in this text go back to paper doi:10.1101/2021.07.07.451493 (bioRxiv, 2021).

For the test, the target named is T1, purified human glypican-4 (GPC-4) protein (human, UniProt O75487 19-529).
T1 sequence (looked up): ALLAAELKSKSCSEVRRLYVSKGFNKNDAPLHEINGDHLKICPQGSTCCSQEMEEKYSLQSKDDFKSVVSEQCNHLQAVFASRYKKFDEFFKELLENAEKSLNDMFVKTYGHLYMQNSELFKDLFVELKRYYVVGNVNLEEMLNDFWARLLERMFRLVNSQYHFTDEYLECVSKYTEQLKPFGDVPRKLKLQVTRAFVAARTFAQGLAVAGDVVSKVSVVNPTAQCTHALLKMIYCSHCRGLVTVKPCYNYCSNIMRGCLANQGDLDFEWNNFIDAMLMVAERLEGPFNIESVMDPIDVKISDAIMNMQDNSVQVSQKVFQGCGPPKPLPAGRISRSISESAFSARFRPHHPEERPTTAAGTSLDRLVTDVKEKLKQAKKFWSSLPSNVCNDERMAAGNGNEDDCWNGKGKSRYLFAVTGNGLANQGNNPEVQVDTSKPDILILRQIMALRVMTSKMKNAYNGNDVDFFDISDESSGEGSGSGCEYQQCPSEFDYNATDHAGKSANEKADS
Nature of the test: native gel or EMSA.

B1: purified human APOE4 protein (natural protein)
chain: not shown
As to B1, the binding result was “binds”.
